Test results published in the supplement of paper PMC9446081.
The whole screen tested about 39,000 compounds, of which about 220 (0.56%) showed activity. The list shows a part of the results.

Each molecule was assayed on Escherichia coli K-12 BW25113 (assay: relative growth (OD600 normalised to plate interquartile mean) (fraction); higher = less growth inhibition, active = 0.2 or less). Settings: 50 µM; LB; incubation time: overnight (16-24 h).
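Further: static incubation at 37 °C against the wild-type strain, values averaged over two biological replicates.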

| SMILES | relative growth |
| --- | --- |
| COc1ccc(S(=O)(=O)N(C)C[C@H]2Oc3ccc(NS(=O)(=O)c4ccc(F)cc4)cc3C(=O)N([C@H](C)CO)C[C@@H]2C)cc1 | inactive: 1.01 |
| C[C@@H]1CN([C@@H](C)CO)C(=O)c2c(c3ccccc3n2C)-c2ccccc2CO[C@@H]1CN(C)C(=O)[C@H](C)c1ccccc1 | inactive: 1 |
| C[C@H](CO)N1C[C@H](C)[C@H](CN(C)CC2CC2)OCCCC[C@H](C)Oc2ccc(NC(=O)CCC(F)(F)F)cc2C1=O | inactive: 0.985 |
| COc1cccc(S(=O)(=O)N[C@@H]2CC[C@H](CCn3cc(-c4ccccc4OC)nn3)O[C@H]2CO)c1 | inactive: 1.03 |
| C[C@H]1CCCCO[C@@H](CN(C)C(=O)Nc2cccc3ccccc23)[C@@H](C)CN([C@@H](C)CO)C(=O)c2cc(NS(=O)(=O)c3cn(C)cn3)ccc2O1 | inactive: 0.954 |
| C[C@@H]1CCCCO[C@@H](CN(C)Cc2ccc(C(F)(F)F)cc2)[C@H](C)CN([C@@H](C)CO)C(=O)c2cc(NS(=O)(=O)c3ccc(F)cc3)ccc2O1 | inactive: 0.991 |
| O=C(C[C@@H]1CC[C@@H]2[C@H](COC[C@@H](O)CN2Cc2cc(F)ccc2F)O1)N[C@H]1CCN(Cc2ccccc2)C1 | inactive: 1.02 |
| C[C@@H]1CN([C@H](C)CO)C(=O)c2cc(NC(=O)Nc3cccc4ccccc34)ccc2O[C@@H](C)CCCCO[C@H]1CN(C)Cc1ccccc1 | inactive: 1 |
| Cc1noc(C)c1NC(=O)Nc1ccc2c(c1)C(=O)N([C@@H](C)CO)C[C@@H](C)[C@@H](CN(C)C(=O)Nc1ccccc1)OCCCC[C@H](C)O2 | inactive: 1.01 |
| Cc1ccc(S(=O)(=O)N(C)C[C@H]2Oc3c(NS(=O)(=O)c4ccccc4)cccc3C(=O)N([C@@H](C)CO)C[C@H]2C)cc1 | inactive: 1.04 |
| Cc1nc(-c2ccc(OCC(C)C)c(C#N)c2)sc1C(=O)O | inactive: 0.831 |
| C[C@@H]1CN([C@H](C)CO)C(=O)c2cc(NC(=O)Nc3cccc4ccccc34)ccc2O[C@H]1CN(C)Cc1ccc2c(c1)OCO2 | inactive: 1 |
| C[C@@H]1CN([C@H](C)CO)C(=O)c2cc(NS(C)(=O)=O)ccc2O[C@@H](C)CCCCO[C@H]1CN(C)Cc1ccncc1 | inactive: 0.999 |
| O=C(CN1CCOCC1)N[C@@H]1CC[C@@H](CCNC(=O)C2CCCCC2)O[C@H]1CO | inactive: 1 |
| C[C@@H]1CN([C@H](C)CO)C(=O)c2cc(NC(=O)CCCN(C)C)ccc2O[C@@H]1CN(C)Cc1ccc2c(c1)OCO2 | inactive: 0.988 |
| C[C@H]1CN([C@@H](C)CO)C(=O)c2cc(NC(=O)c3ccncc3)ccc2O[C@H]1CN(C)S(=O)(=O)c1ccc(F)cc1 | inactive: 1.01 |
| C[C@@H]1CCC[C@H](C)N1c1nn(C)c(=O)[nH]1 | inactive: 0.994 |
| C[C@@H]1CCCCO[C@H](CN(C)C(=O)c2ccccc2)[C@H](C)CN([C@@H](C)CO)C(=O)c2cc(NC(=O)NC3CCCCC3)ccc2O1 | inactive: 0.981 |
| COc1ccc(S(=O)(=O)Nc2cccc3c2O[C@H](CN(C)C(=O)Nc2c(C)noc2C)[C@H](C)CN([C@@H](C)CO)C3=O)cc1 | inactive: 0.982 |

| SMILES | relative growth |
| --- | --- |
| C[C@H](CO)N1C[C@H](C)[C@H](CN(C)C(=O)c2ccncc2)OCCCC[C@H](C)Oc2ccc(NC(=O)CCCCCC(=O)Nc3ccccc3N)cc2C1=O | inactive: 1.01 |
| COCC(=O)Nc1ccc2c(c1)C(=O)N(C)[C@H]1CC[C@H](CC(=O)NCc3ccc(OC)cc3)O[C@H]1CO2 | inactive: 0.998 |
| COC(=O)c1c(CC[C@@H](CO)NC(=O)N[C@H](Cn2cc(-c3ccccc3C)nn2)C(C)C)oc(C(C)=O)c1C(=O)OC | inactive: 1.02 |
| C[C@H](CO)N1C[C@H](C)[C@@H](CN(C)S(=O)(=O)c2ccc3ccccc3c2)OCc2cn(nn2)CCCC1=O | inactive: 0.969 |
| CNC[C@@H]1OCCCC[C@H](C)Oc2ccc(NC(=O)c3ccncc3)cc2C(=O)N([C@@H](C)CO)C[C@@H]1C | inactive: 1 |
| Cc1nn(C)c(Cl)c1S(=O)(=O)NC(=O)[C@@]1(C)CCN1C(=O)c1ccccc1CCc1ccccc1 | inactive: 0.979 |
| COc1ccccc1NC(=O)C1=C(C)N=C(SCC(=O)Nc2ccccc2[N+](=O)[O-])C(C#N)[C@@H]1c1ccccc1F (stereo partly drawn) | inactive: 1.04 |
| C=CC[C@H](CC(=O)N(CCO)Cc1ccccc1)C(=O)N1CCC[C@@H]1COC(=O)[C@H](CC=C)NC(=O)OCC1c2ccccc2-c2ccccc21 | inactive: 1 |
| C[C@H](CO)N1C[C@H](C)[C@H](CN(C)Cc2ccc(Oc3ccccc3)cc2)Oc2ccc(NS(=O)(=O)c3ccc(Cl)cc3)cc2C1=O | inactive: 1.01 |
| C[C@@H]1CCCCO[C@@H](CN(C)C(=O)C2CCCCC2)[C@@H](C)CN([C@@H](C)CO)C(=O)c2cc(NS(=O)(=O)c3cccs3)ccc2O1 | inactive: 1.01 |
| CCN(CC)CCOC(=O)C(c1ccccc1)c1ccccc1.Cl | inactive: 1.17 |
| CC(C)NC(=O)Nc1ccc2c(c1)C(=O)N([C@H](C)CO)C[C@@H](C)[C@H](CN(C)C(=O)C1CCCCC1)OCCCC[C@@H](C)O2 | inactive: 1.02 |
| Cc1noc(C)c1NC(=O)N(C)C[C@@H]1Oc2ccc(NC(=O)Cn3cnnn3)cc2CC(=O)N([C@@H](C)CO)C[C@@H]1C | inactive: 1.01 |
| C[C@@H]1CN([C@@H](C)CO)C(=O)Cc2cc(NC(=O)Nc3cccc4ccccc34)ccc2O[C@H]1CN(C)C(=O)Nc1ccc(F)cc1 | inactive: 0.996 |
| Cc1ccc(S(=O)(=O)N(C)C[C@@H]2Oc3c(NC(=O)C4CC4)cccc3C(=O)N([C@@H](C)CO)C[C@@H]2C)cc1 | inactive: 1.01 |
| CC(Oc1c(Cl)cccc1Cl)C1=NCCN1.Cl (stereo not drawn) | inactive: 1.02 |
| CN(C)C(=O)COC[C@]12COC[C@H]1CN(S(C)(=O)=O)C2 | inactive: 0.987 |
| C[C@H]1CN([C@@H](C)CO)C(=O)CCCn2nncc2CO[C@H]1CN(C)C(=O)CCCN(C)C | inactive: 0.988 |
| C[C@@H]1CN([C@H](C)CO)C(=O)c2cccc(NC(=O)Nc3ccccc3)c2O[C@@H]1CN(C)Cc1ccc(-c2ccccc2)cc1 | inactive: 0.993 |
